# Assay results as given in paper PMC10299909, “Structural basis of efficacy-driven ligand selectivity at GPCRs” (Nature Chemical Biology, 2023).
# Values joined by “and” are separate entries in the source; they are usually repeats but may differ in a detail not shown here. Equal entries are not always repeated. This continues a long series; more values of the same kind are listed elsewhere.
# Legend:
# M4 WT mAChR = biological target: T1, M4 WT mAChR (Homo sapiens, UniProt P08173); test: BRET TRUPATH GoA activation (G-protein dissociation) assay; type: cell-based; conditions: T=6min, listed as Ach
# T1 construct: expressed in transfected cells; host or cells: CHO FlpIn
# T1 sequence (P08173 1-479): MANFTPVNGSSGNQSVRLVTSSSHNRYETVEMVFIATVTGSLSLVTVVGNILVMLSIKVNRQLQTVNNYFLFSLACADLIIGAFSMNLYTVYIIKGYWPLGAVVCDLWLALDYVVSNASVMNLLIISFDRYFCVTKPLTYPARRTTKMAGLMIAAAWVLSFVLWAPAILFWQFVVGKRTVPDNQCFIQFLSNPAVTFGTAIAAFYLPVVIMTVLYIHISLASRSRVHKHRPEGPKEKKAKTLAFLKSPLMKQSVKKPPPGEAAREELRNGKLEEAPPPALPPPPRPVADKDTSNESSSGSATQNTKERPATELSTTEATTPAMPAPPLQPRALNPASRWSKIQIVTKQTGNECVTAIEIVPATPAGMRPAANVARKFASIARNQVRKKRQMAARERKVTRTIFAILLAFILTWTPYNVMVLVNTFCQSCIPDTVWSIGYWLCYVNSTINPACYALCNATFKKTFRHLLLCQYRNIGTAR
# Protocol: (§1) Cells were seeded at 20,000 cells per well into 96-well flat-bottom white culture plates and grown for 4 h. Plasmid DNA (20 ng per well of Gα, Gβ and Gγ at a 1:1:1 ratio) and linear polyethylenimine were added to the cells in a 1:6 ratio. To allow for protein expression, cells were then incubated (37 °C, 5% CO2) for 48 h before the measurement of agonist activity. […] The initial 4 min of measurement was considered baseline counts before ligand or vehicle addition, with BRET readings every 2 min for a further 8 min following drug or vehicle addition.
# (§2) Concentration–response curves were fitted to a three-parameter logistic equation to derive ligand potency (pEC50) estimates.
# (§3) Data was analyzed using the operational model of agonism to quantify the efficacy (Logτ) of each agonist in each cell line, and subsequently corrected for receptor expression level differences between cell lines (Logτc), using the M2 WT as reference. […] Source data
# M2 WT mAChR = biological target: T2, M2 WT mAChR (Homo sapiens, UniProt P08172); test: as above; type: cell-based; conditions: T=6min, listed as Ach
# T2 construct: expressed in transfected cells; host or cells: CHO FlpIn
# T2 sequence (P08172 1-466): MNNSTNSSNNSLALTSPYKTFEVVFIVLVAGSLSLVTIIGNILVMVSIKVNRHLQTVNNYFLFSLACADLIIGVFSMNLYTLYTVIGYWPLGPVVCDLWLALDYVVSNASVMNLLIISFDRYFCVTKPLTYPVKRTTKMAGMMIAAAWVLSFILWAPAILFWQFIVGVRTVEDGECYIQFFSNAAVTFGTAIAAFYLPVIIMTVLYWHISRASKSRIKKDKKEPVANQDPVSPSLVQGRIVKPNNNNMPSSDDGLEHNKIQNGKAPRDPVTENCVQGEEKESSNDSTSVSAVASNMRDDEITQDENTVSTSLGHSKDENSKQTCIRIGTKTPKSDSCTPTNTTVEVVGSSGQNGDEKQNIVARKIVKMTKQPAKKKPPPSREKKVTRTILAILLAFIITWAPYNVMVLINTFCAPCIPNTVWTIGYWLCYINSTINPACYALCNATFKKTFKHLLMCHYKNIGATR
# Protocol: as §1, §2, §3
# [1] = Log[Ligand] (M) -5, individual experiments
# [2] = Log[Ligand] (M) -6, individual experiments
# [3] = Log[Ligand] (M) -7, individual experiments
# [4] = Log[Ligand] (M) -8, individual experiments
compound,measurement,setting,value
"CC(=O)OCC[N+](C)(C)C [Acetylcholine, acetylcholine]",GoA activation response,M4 WT mAChR; [1],98.3771 % Emax ACh and 95.2045 % Emax ACh and 102.476 % Emax ACh and 99.6093 % Emax ACh and 99.0807 % Emax ACh
same,GoA activation response,M4 WT mAChR; [2],88.1919 % Emax ACh and 95.0934 % Emax ACh and 93.3247 % Emax ACh and 93.8992 % Emax ACh and 92.3509 % Emax ACh
same,GoA activation response,M4 WT mAChR; [3],50.9085 % Emax ACh and 87.1687 % Emax ACh and 56.2623 % Emax ACh and 65.2872 % Emax ACh and 66.1777 % Emax ACh
same,GoA activation response,M4 WT mAChR; [4],20.0071 % Emax ACh and 21.9927 % Emax ACh and 30.4947 % Emax ACh and 17.2765 % Emax ACh and 22.5206 % Emax ACh
same,GoA activation response,M2 WT mAChR; [1],95.9446 % Emax ACh and 100.183 % Emax ACh and 98.1367 % Emax ACh and 97.8085 % Emax ACh and 98.9826 % Emax ACh
same,GoA activation response,M2 WT mAChR; [2],93.4511 % Emax ACh and 95.89 % Emax ACh and 95.9729 % Emax ACh and 95.7061 % Emax ACh and 95.6761 % Emax ACh
same,GoA activation response,M2 WT mAChR; [3],66.0014 % Emax ACh and 59.0466 % Emax ACh and 58.181 % Emax ACh and 63.3213 % Emax ACh and 68.6187 % Emax ACh
same,GoA activation response,M2 WT mAChR; [4],4.731 % Emax ACh and 12.001 % Emax ACh and 11.0991 % Emax ACh and 13.8159 % Emax ACh
